Assay results taken from PubChem BioAssay AID1159614 (National Center for Advancing Translational Sciences (NCATS), 2016).
In all, about 45,000 compounds went through this assay and about 65 (0.1%) were called active. Calls come from the whole dose curve; as a rule, active = well fitted activation curve with a large enough effect; inconclusive = small, poorly fitted or top-dose-only effect; inactive = no such curve, though single readings can be large or run the other way. This is one part of the list.

molecular target: Galactocerebrosidase (Homo sapiens) (UniProt P54803); experiment: A Novel Cell-Based Assay to Identify Small Molecules for B -Galactocerebrosidase; settings: 145M-Twi-hGALC-G270D cells (Twitcher mouse brain line with human GALC G270D), HMU-beta-Gal fluorescence, 48 h; series mostly up to 57.5 µM; activation: at the top concentration; note: 0% is about no effect; nearly all actives have a fitted effect of over 65% in size
Chain of UniProt P54803 (P54803 whole entry, looked up): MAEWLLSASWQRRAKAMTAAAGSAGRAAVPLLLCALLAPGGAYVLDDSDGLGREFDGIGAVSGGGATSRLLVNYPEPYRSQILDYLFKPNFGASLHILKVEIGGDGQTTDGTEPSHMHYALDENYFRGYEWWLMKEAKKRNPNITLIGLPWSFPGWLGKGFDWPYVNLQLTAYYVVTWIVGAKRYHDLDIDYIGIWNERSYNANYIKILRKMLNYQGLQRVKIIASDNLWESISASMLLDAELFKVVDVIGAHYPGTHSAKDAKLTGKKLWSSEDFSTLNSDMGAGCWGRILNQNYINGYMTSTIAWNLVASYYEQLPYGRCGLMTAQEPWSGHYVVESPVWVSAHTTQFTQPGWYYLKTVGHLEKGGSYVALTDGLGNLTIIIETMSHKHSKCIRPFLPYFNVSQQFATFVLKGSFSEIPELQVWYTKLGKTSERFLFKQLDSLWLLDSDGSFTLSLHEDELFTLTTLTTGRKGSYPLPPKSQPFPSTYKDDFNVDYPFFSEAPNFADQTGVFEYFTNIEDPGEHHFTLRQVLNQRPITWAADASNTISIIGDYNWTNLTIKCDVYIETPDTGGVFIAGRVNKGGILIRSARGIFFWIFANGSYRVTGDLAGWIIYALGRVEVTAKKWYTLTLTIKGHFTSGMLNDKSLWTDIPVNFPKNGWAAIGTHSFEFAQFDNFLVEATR
Procedure, shortened: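 Live 145M-Twi cells (Twitcher mouse brain-derived, GALC-null) stably expressing human GALC-G270D, with a wild-type GALC line, were compound-treated. Residual GALC activity was then read as fluorescence from 0.1 mM final HMU-β-gal at pH 5.2; higher signal means activation.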

activation, inactive:
CCN1CCN(Cc2c(O)ccc3c(C)c(-c4ccccc4)c(=O)oc23)CC1 -11.5%
Cc1cc(NC(=O)Cn2nc(C)n3cccc3c2=O)ccc1Br -5.82%
Cn1c(=O)n(-c2cccc(Cl)c2)c(=O)c2sc3ccccc3c21 -6.74%
CCOC(=O)N1CCC2(CC1)OC(=O)C(C)=C2C(=O)NCc1cccc(OC)c1 -3.84%
CCCS(=O)(=O)N1CC(=O)N(c2ccccc2C)C(C)(C(=O)NC2CCCC2)C1 (configuration not stated) -2.91%
CNC(=O)c1sc2ncccc2c1-n1cccc1 -15%
Cc1ccc(NC(=O)C(c2ccccc2)N2Cc3ccccc3C2=O)cc1Cl (configuration not stated) -16%
Cc1ccc(C)c(N2CCN(c3nc4ccccc4n4c(C)nnc34)CC2)c1 -5.83%
Cc1ccc(NC(=O)Cn2c(=O)n(CCC(=O)NCc3ccc4c(c3)OCO4)c(=O)c3sccc32)c(C)c1 -17.6%
CCCC(C(=O)OCCN(CC)CC)(c1ccccc1)c1ccccc1 -8.99%
O=C(CSc1nc2c(c(=O)[nH]1)CCCC2)Nc1ccc(Br)cc1 -0.305%
COc1ccc(CNc2cc(-c3ccc(OC)cc3)nc3nncn23)cc1 -4.99%
COc1ccccc1C(=O)Nc1c(C(=O)N(C)c2ccccc2)sc2nc(C)cc(C)c12 -19.8%
Cc1cccc(NC(=O)c2oc3ccccc3c2NC(=O)c2cc(=O)c3cc(Cl)ccc3o2)c1 7.39%
CCOC(=O)c1ccc(OC(=O)CCCCCN=C(N)N)cc1 -7.79%
Cn1c(SCC(=O)c2ccc(F)cc2)nnc1-c1ccccc1Br -48.3%
COc1ccc(C)cc1NC(=O)CSc1ccc(-c2ccccn2)nn1 -11%
O=C(Nc1ccc(Cl)cc1)c1cc(S(=O)(=O)N2CCc3ccccc32)ccc1F -10.2%
COc1ccc(-c2nc(Cn3c(SCc4ccccc4F)nc4ccncc43)c(C)o2)cc1OC -12.3%
Cc1ccc(S(=O)(=O)Nc2nc3n(n2)C(c2ccccc2Cl)C=C(c2ccccc2)N3)cc1 (configuration not stated) -15.3%
Cn1c(=O)c2sccc2n2c(CCC(=O)NCc3ccccc3Cl)nnc12 16.7%
CN(Cc1ccccc1)C(=O)C1CCN(S(=O)(=O)c2ccc3nc4c(c(C(=O)O)c3c2)CCCC4)CC1 -7.37%
COc1ccc(CNC(=O)C2CCN(C(=O)N3CC(C)Oc4ccc(C)cc43)CC2)cc1 (configuration not stated) -11.6%
COc1cccc(CNC(=O)CN2C(=O)COc3ccc(S(=O)(=O)Nc4ccccc4)cc32)c1 -7.97%
O=C(CCS(=O)(=O)c1cc(Br)cc2c1N(C(=O)C1CC1)CC2)Nc1ccc(C(F)(F)F)cc1 -9.83%
COc1ccc(CCNC(=O)c2c(C)oc3ncn(CC(C)C)c(=O)c23)cc1OC -9.81%
CCn1cc(C(=O)NCCc2ccc(C)cc2)c(=O)c2cc(S(=O)(=O)N3CCCCC3)ccc21 -9.08%
Cc1cc(C)cc(NC(=O)C2CCC(CNS(=O)(=O)c3ccc4c(c3)C(C)(C)C(=O)N4C)CC2)c1 (configuration not stated) 7.31%
CCOc1ccc(C(=O)Nc2cc(-c3cn4cccnc4n3)ccc2C)cc1OCC 5.41%
CCN(CC)S(=O)(=O)c1nnc(NC(=O)c2ccc(C(C)C)cc2)s1 -18.3%
O=C(c1ccco1)N1CCN(c2nc3c(Cl)cccc3s2)CC1 -17.4%
O=C(Cn1c(=O)n(-c2ccc(Cl)cc2)c(=O)c2oc3ccccc3c21)Nc1ccccc1 5.39%
CC1CCN(c2ncnc3c2nnn3C)CC1 -12.3%
Cc1cccc(N2CCN(CCCNC(=O)c3nnc(Cc4c(F)cccc4Cl)o3)CC2C)c1 (configuration not stated) -6.25%
CCCSS/C(CCO)=C(\C)N(C=O)Cc1cnc(C)nc1N -13.2%
COc1cccc(C(=O)Nc2ccccc2-c2nnc(-c3cc(OC)ccc3Br)o2)c1 5.09%
Cn1cnc(S(=O)(=O)N2CCC(C(=O)NCc3ccc(F)cc3)CC2)c1 -19.2%
O=C(Cc1ccc(Cl)cc1)NCC(c1cccs1)S(=O)(=O)c1ccc(F)cc1 (configuration not stated) -1.08%
COc1ccc(C2=C(C)C(=O)N(Cc3ccc(C(=O)Nc4cc(C)ccc4C)cc3)S2(=O)=O)cc1 -16.7%
O=C(COC(=O)c1cccc(NC(=O)c2ccc(Br)cc2)c1)c1ccc(Br)cc1 -5.22%
COc1cccc(C(=O)Nc2ccc3nc(N4CCC(C)CC4)cc(C)c3c2)c1 -2.89%
Cc1nn2c(=O)cc(COC(=O)c3cccc(NC(=O)c4ccc(C(C)(C)C)cc4)c3)nc2s1 -1.5%
COc1ccc(C2=CC(c3cccc(C)c3)n3nnnc3N2)cc1 (configuration not stated) -12.1%
CC(C)NC(=O)c1ccccc1NC(=O)c1nsc2ccccc12 -20.5%
CCN(CC)S(=O)(=O)c1ccc2c(c1)N(CC(=O)Nc1ccc(C)cc1C)C(=O)C1CCCN21 (configuration not stated) -11.4%
COc1cc(NC(=O)Cn2nc(-c3ccc(C)c(C)c3)ccc2=O)cc(OC)c1 -13.1%
Cc1ccc(S(=O)(=O)c2nc(S(C)(=O)=O)sc2NCc2ccccc2)cc1 -11.8%
CCOC(=O)c1c(C)oc2nc(C)nc(NCCc3ccc(SC)cc3)c12 -20.9%
COc1ccc(C(=O)CCC(=O)Nc2ccc(OC)c(Cl)c2)cc1 -18.2%
CCOC(=O)c1[nH]c2c(c1Cc1ccccc1OC)C(=O)CC(c1ccc(OCC)cc1)C2 (configuration not stated) -15.8%
Cc1ccc2c(c1)c1c(c(=O)n(Cc3ccccc3)c(=O)n1CC(=O)NCc1ccccc1Cl)n2C -1.12%
O=S(=O)(c1ccc2c(c1)CCN2)N1CCCCCC1 -21.4%
Cc1cccc(C)c1Nc1nc2ccccc2nc1NS(=O)(=O)c1ccccc1 -26.5%
CCC(C)OC(=O)/C(C#N)=C\c1ccc(-c2cccc(C(F)(F)F)c2)o1 (configuration not stated) -33.9%
COc1ccc(C(C)n2c(C)c3c(C)nnc(C)c3c2C)cc1 (configuration not stated) -17.8%
COc1ccc(S(=O)(=O)N(CC(=O)NCc2ccccc2)c2ccc(C)cc2)cc1OC -15.5%
CN(C(=O)CN1C(=O)CCSc2ccc(S(=O)(=O)N3CCCC3)cc21)c1ccccc1 -6.55%
O=C(Cn1c(=O)nc(-c2ccccc2)c2ccccc21)NCc1ccc(F)cc1 4.33%
Cc1cccc(NC2=CC(c3cccc(Br)c3)N(c3cccc(C)c3)C2=O)c1 (configuration not stated) -8.14%
CCOC(=O)c1c(C)[nH]c(C)c1S(=O)(=O)NCC(=O)N1CCN(c2cccc(C)c2)C(C)C1 (configuration not stated) -12.2%
Cc1cc(O)c(C(c2ccccc2)N2CCN(C)CC2)c(=O)n1Cc1ccco1 (configuration not stated) -24.3%
C=Cc1ccc(CN2C(=O)c3ccccc3Sc3ccc(C(=O)OCc4ccco4)cc32)cc1 -1.21%
O=C(Nc1ccccc1)N(Cc1ccc(F)cc1)c1ccccn1 5.33%
CC1=C(C(=O)N2CCN(c3cccc(C)c3C)CC2)C2(CCCCC2)OC1=O -15.9%
COc1ccc(-c2noc(CN(C(C)C)S(=O)(=O)c3ccc(Br)cc3)n2)cc1 -17.9%
COc1ccc(Br)cc1CNC(=O)c1nn(-c2ccc(C)cc2)c(=O)c2c1c1ccccc1n2C -16.4%
CN(C)c1ccc(CNS(=O)(=O)c2ccc3[nH]c4c(c3c2)CCCCC4)cc1 -39%
Cc1ccc(CNC(=O)c2c(O)nc3c(C)cccn3c2=O)cc1 -16.6%
Cc1nc2ccc(S(=O)(=O)NC(CC(C)C)C(=O)N3CCN(c4ccc(F)cc4)CC3)cc2s1 (configuration not stated) -13.1%
Fc1ccc(Cc2cn3cc(-c4ccccc4)nc3s2)cc1 -8.06%
O=C(C1CC1)N1CCN(c2nc3c(Cl)cccc3s2)CC1 -23.5%
COc1ccc(CCNC(=O)CSc2nnnn2-c2cccc(C(C)=O)c2)cc1OC -3.44%
CCOC(=O)c1ccc(NC(=O)c2csnn2)cc1 -13.5%
CCOC(=O)c1cccc(NC(=O)CCC(=O)N2CC(C)Oc3ccc(C)cc32)c1 (configuration not stated) -24.7%
Clc1ccccc1C(c1ccccc1)(c1ccccc1)n1ccnc1 -4.95%
NC(=O)NO -17%
Cc1ccccc1-c1noc(-c2cccnc2N(C)Cc2ccc(Cl)cc2)n1 -9.49%
COc1cccc(CNC(=O)CSc2ncc(S(=O)(=O)c3ccc(Br)cc3)c(=O)[nH]2)c1 -10.5%
CC1CCN(S(=O)(=O)c2ccc3c(c2)N(CC(=O)NC(C)C)C(=O)CO3)CC1 -14.8%
Cc1c(C(=O)Nc2ccc(C(C)C)cc2)sc2nc[nH]c(=O)c12 -0.893%
COc1ccc(CNC(=O)CSc2ncc(S(=O)(=O)c3ccc(C)c(Cl)c3)c(=O)[nH]2)cc1 -7.89%
Cc1ccc(NC(=O)C2CCCN2S(=O)(=O)c2cccc3nsnc23)cc1Cl (configuration not stated) -24.1%
COc1ccc(CNC(=O)c2ccc3c(c2)CCN3S(=O)(=O)c2ccc(C)cc2)cc1 -11.4%
CC1CCN(S(=O)(=O)c2ccc3c(c2)CCN3C(=O)Nc2ccc(Br)cc2)CC1 -7.36%
Cc1ccccc1C(=O)N1CCN(CCc2ccccn2)CC1 -4.2%
O=C(NCCc1ccccc1)C(=O)NCC(c1cccnc1)N1CCN(c2ccccc2F)CC1 (configuration not stated) -8.12%
COc1ccccc1Nc1nn2c(=O)c3ccc(C(=O)NCc4ccc(F)cc4)cc3nc2s1 -24.2%
O=C(C1CCC(Cn2c(=O)c3sccc3n(Cc3cccc(F)c3)c2=O)CC1)N1CCCCC1 (configuration not stated) -8.33%
CCc1cccc2c(-c3ccc(F)cc3)nc(SCC(=O)Nc3ccccc3)nc12 -0.231%
COc1ccc(C(=O)Nc2ccc(-c3cc4ccccc4oc3=O)c(C)c2)cc1OC -13.9%
CC(C)CCNC(=O)C1CCN(C(=O)N2CCOc3ccc(Cl)cc32)CC1 -7.58%
COc1ccc(CCNC(=O)c2ccc(CS(=O)(=O)Cc3cccc(C)c3)o2)cc1OC -13%
CCN1CCN(C(c2ccc(F)cc2)c2c(O)cc(C)n(CCOC)c2=O)CC1 (configuration not stated) -14.1%
Cc1ccc(CNC(=O)C(=O)NCC(c2ccco2)S(=O)(=O)c2cccs2)cc1 (configuration not stated) -16.3%
COc1ccc(-c2n[nH]c3c2C(c2ccc(O)cc2)N(c2ccc(Br)cc2)C3=O)cc1 (configuration not stated) -19.7%
CSc1cccc(NC(=O)N2CCN(c3cc(-c4noc(C)n4)ccc3C)CC2)c1 -24.3%
CCOc1ccc(NC(=O)CSc2cn(CC(=O)N3CCCCCC3)c3ccccc23)cc1 -33.5%
